Counter-ions that a name gives are not always drawn. The list shows a part of the results. Single values are uncertain, as repeats are few or missing.
How the values were obtained:
[1] = system: KB-3-1; experiment: growth inhibition relative to DMSO control (SRB); cervical cancer cells: KB-3-1 is the parent and KB-V1 overexpresses MDR1; SRB is the sulforhodamine B stain; higher = more growth inhibition; conditions: 1 µM; 72 h
[2] = system: KB-V1; experiment: as above; conditions: 1 µM; 72 h
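Further: Read-out is SRB optical density at 490 nm, with the control being wells given 0.5% DMSO vehicle, and compound added one day after cells were plated.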

## CC(C)(C)NC(=O)[C@H]1CC[C@H]2[C@@H]3CC[C@H]4NC(=O)C=C[C@]4(C)[C@H]3CC[C@]12C [Finasteride]
[1]
  growth inhibition: 35.2%
[2]
  growth inhibition: 38%

## O=C(CSc1nc2c(c(=O)n1-c1ccccc1)SCC2)Nc1ccc(-c2ccccc2)cn1
[1]
  growth inhibition: 20.6%
[2]
  growth inhibition: < 0%

## COc1cc(Nc2ncc(F)c(Nc3ccc4c(n3)NC(=O)C(C)(C)O4)n2)cc(OC)c1OC
[1]
  growth inhibition: < 0%
[2]
  growth inhibition: 25.2%

## CC[C@H](CO)Nc1nc(NCc2ccccc2)c2ncn(C(C)C)c2n1 [Roscovitine (Seliciclib,CYC202)]
[1]
  growth inhibition: 33.5%
[2]
  growth inhibition: 37.5%

## CO[C@H]1C[C@@H]2CC[C@@H](C)[C@@](O)(O2)C(=O)C(=O)N2CCCC[C@H]2C(=O)O[C@H]([C@H](C)C[C@@H]2CC[C@@H](OP(C)(C)=O)[C@H](OC)C2)CC(=O)[C@H](C)/C=C(\C)[C@@H](O)[C@@H](OC)C(=O)[C@H](C)C[C@H](C)/C=C/C=C/C=C/1C [Ridaforolimus (Deforolimus, MK-8669)]
[1]
  growth inhibition: 67.7%
[2]
  growth inhibition: 42%

## CC(=O)O[C@]1(C(C)=O)CC[C@H]2[C@@H]3C=C(C)C4=CC(=O)CC[C@]4(C)[C@H]3CC[C@@]21C [Megestrol Acetate]
[1]
  growth inhibition: 14.5%
[2]
  growth inhibition: 39.7%

## Cc1c(Cl)cccc1Nc1ccccc1C(=O)O [Tolfenamic Acid]
[1]
  growth inhibition: 49.3%
[2]
  growth inhibition: 21.6%

## c1ccc2c(Oc3nc(Nc4ccc(N5CCOCC5)cc4)c4ncn(C5CCCCC5)c4n3)cccc2c1 [Purmorphamine]
[1]
  growth inhibition: < 0%
[2]
  growth inhibition: 4.25%

## Cc1cc(C)c(Nc2ccnc(Nc3ccc(C#N)cc3)n2)c(C)c1 [Dapivirine (TMC120)]
[1]
  growth inhibition: 2.81%
[2]
  growth inhibition: 15.9%

## COc1cc2ncnc(Nc3ccc(Cl)cc3F)c2cc1OC
[1]
  growth inhibition: 24.7%
[2]
  growth inhibition: 10%

## COc1cc2nc(N3CCN(C(=O)C4CCCO4)CC3)nc(N)c2cc1OC (stereo unspecified) [Terazosin HCl]
[1]
  growth inhibition: 18.9%
[2]
  growth inhibition: 18.9%

## O=C1N=C(O)NC1(c1ccccc1)c1ccccc1 [Phenytoin sodium]
[1]
  growth inhibition: 30.4%
[2]
  growth inhibition: 15.6%

## CC(C)c1cc(C(C)C)c(CC(=O)NS(=O)(=O)Oc2c(C(C)C)cccc2C(C)C)c(C(C)C)c1 [Avasimibe]
[1]
  growth inhibition: < 0%
[2]
  growth inhibition: < 0%

## Cn1cc(C2=C(c3cn(CCCSC(=N)N)c4ccccc34)C(=O)NC2=O)c2ccccc21 [Ro 31-8220 Mesylate]
[1]
  growth inhibition: 76.9%
[2]
  growth inhibition: 8.44%

## CNC(=O)c1ccc2cc([C@@]3(O)CCn4cncc43)ccc2c1 [TAK-700 (Orteronel)]
[1]
  growth inhibition: 29.4%
[2]
  growth inhibition: 41.5%

## Cc1ccccc1C(=O)Nc1ccc(C(=O)N2CCCC(O)c3cc(Cl)ccc32)c(C)c1 (stereo unspecified) [Tolvaptan]
[1]
  growth inhibition: 21.6%
[2]
  growth inhibition: 4.26%

## CC(C[N+](C)(C)C)OC(N)=O (stereo unspecified) [Bethanechol chloride]
[1]
  growth inhibition: 26.9%
[2]
  growth inhibition: 6.72%

## CS(=O)(=O)c1ccc(C(=O)Nc2ccc(Cl)c(-c3ccccn3)c2)c(Cl)c1 [Vismodegib (GDC-0449)]
[1]
  growth inhibition: 16.3%
[2]
  growth inhibition: 12.4%

## CN1CCN(C2CCN(C(=O)Nc3cc(Oc4ccc(NC(=O)C5(C(=O)Nc6ccc(F)cc6)CC5)c(F)c4)ccn3)CC2)CC1 [Golvatinib (E7050)]
[1]
  growth inhibition: 49.2%
[2]
  growth inhibition: 20.7%

## O=C(NCc1ccc(Oc2ccccc2)cc1)c1nc(-c2cc(Br)c(O)c(Br)c2)no1
[1]
  growth inhibition: < 0%
[2]
  growth inhibition: < 0%

## Cc1c(C(=O)NN2CCCCC2)nn(-c2ccc(Cl)cc2Cl)c1-c1ccc(Cl)cc1 [Rimonabant]
[1]
  growth inhibition: < 0%
[2]
  growth inhibition: 13.3%

## CCN(c1cc(-c2ccc(CN3CCOCC3)cc2)cc(C(=O)NCc2c(C)cc(C)[nH]c2=O)c1C)C1CCOCC1
[1]
  growth inhibition: 12.8%
[2]
  growth inhibition: < 0%

## O=C(O)CCCc1ccccc1 [Sodium Phenylbutyrate]
[1]
  growth inhibition: 8.08%
[2]
  growth inhibition: 18.3%

## CNC(=O)c1cccc(-c2ccc3c(N4CCOC[C@@H]4C)nc(N4CCOC[C@@H]4C)nc3n2)c1
[1]
  growth inhibition: 70%
[2]
  growth inhibition: 82.1%

## Oc1cccc(-c2nc(N3CCOCC3)c3oc4ncccc4c3n2)c1
[1]
  growth inhibition: 92.9%
[2]
  growth inhibition: 88.3%

## O=C(CCCCCN1C(=O)c2cccc3cccc(c23)C1=O)NO [Scriptaid]
[1]
  growth inhibition: 62.6%
[2]
  growth inhibition: 10.5%

## O=C(C[S+]([O-])Cc1ccco1)NC/C=C\COc1cc(CN2CCCCC2)ccn1 (stereo unspecified) [Lafutidine]
[1]
  growth inhibition: 21.8%
[2]
  growth inhibition: 20.8%

## CC(C)(C#N)c1ccc(N2C(=O)OCc3cnc4ccc(-c5cnc6ccccc6c5)cc4c32)cc1
[1]
  growth inhibition: 79.4%
[2]
  growth inhibition: 48.6%

## CC(C)(O)CC(=O)NCCn1ccc2ncnc(Nc3ccc(Oc4cccc(C(F)(F)F)c4)c(Cl)c3)c21
[1]
  growth inhibition: 14.6%
[2]
  growth inhibition: 56.2%

## O=S(=O)(c1cccc2cnccc12)N1CCCNCC1 [Fasudil (HA-1077) HCl]
[1]
  growth inhibition: 25%
[2]
  growth inhibition: 15.3%

## CNC[C@@H](O)c1ccc(O)c(O)c1 [L-Adrenaline]
[1]
  growth inhibition: 31.3%
[2]
  growth inhibition: 10.6%

## Cc1cn([C@H]2C[C@H](N=[N+]=[N-])[C@@H](CO)O2)c(=O)[nH]c1=O [Zidovudine]
[1]
  growth inhibition: 27.8%
[2]
  growth inhibition: 11.7%

## NC1(Cc2ccc(Cl)cc2)CCN(c2ncnc3[nH]ccc23)CC1
[1]
  growth inhibition: < 0%
[2]
  growth inhibition: < 0%
